Reference: the supplement of paper PMC10126150
Values marked as one replicate rest on one cluster of the flow cell; about a third of the high ones do not repeat.

Each sequence was assayed on ATP (assay: switch fluorescence ratio, 500 uM ATP over buffer (Cy3 cluster intensity, sum of 5 cycles each) (fold (ratio)); higher = stronger signal-on switching upon ATP binding; sequences stand for … in TCGTCGGCAGCGTCAGATGTGTATAAGAGACAGTTTTTTTTTTTTTTTTTTTTTTTTT…TC). Details: aptamer strand: ATP DNA aptamer (quencher-CACCTGGGGGAGTATTGCGGAGGAAGG + anchor), 100 nM annealed; ATP concentration: 500 uM; one replicate.
Summary of the method: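 Per cluster, summed Cy3 intensity from the target cycles was divided by that from the buffer cycles to give the fluorescence ratio, then averaged per switch-domain sequence. Clusters outside 100-1000 RFU were excluded. The Cy3-labelled switching-strand clusters, on a modified Illumina MiSeq flow-cell, were annealed to 100 nM quencher-labelled ATP aptamer and imaged in selection buffer, then after 15 min with 500 uM ATP at 22 °C, for five cycles with NaOH stripping and re-annealing between them.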
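Note: ATP exposure 15 min at 22 °C before imaging.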

| Sequence | switch fluorescence ratio |
| --- | --- |
| CTGGGATGGC | 0.991 |
| CTGGGCAGGA | 1.06 |
| CTGGGCTGAT | 1.03 |
| CTGGGCTGCC | 1.02 |
| CTGGGCTGTT | 1.01 |
| CTGGGCTTGG | 0.932 |
| CTGGGCTTTC | 1.02 |
| CTGGGCTTTT | 1.03 |
| CTGGGGAAGG | 0.994 |
| CTGGGGGTAC | 1.06 |
| CTGGGGTTCA | 1.04 |
| CTGGGTACAA | 1.01 |
| CTGGGTGAGA | 1.04 |
| CTGGTAACGC | 1.05 |
| CTGGTACTGC | 1.06 |
| CTGGTATTTA | 0.965 |
| CTGGTGCAGG | 1.13 |
| CTGGTGTCTG | 1.05 |
| CTGGTTAGAA | 0.997 |
| CTGGTTGATG | 1.02 |
| CTGGTTTAAC | 1 |
| CTGTAAAAAT | 0.977 |
| CTGTAACAG | 1.03 |
| CTGTAAGAGC | 0.998 |
| CTGTAATCTG | 1 |
| CTGTAATCTT | 1.05 |

| Sequence | switch fluorescence ratio |
| --- | --- |
| CTGTAATTAA | 1.04 |
| CTGTATGCTC | 1.05 |
| CTGTATGGCT | 0.968 |
| CTGTATGGGC | 0.975 |
| CTGTATGTTG | 0.899 |
| CTGTCAGAAC | 0.978 |
| CTGTCATGA | 1 |
| CTGTCCACCC | 1.04 |
| CTGTCCCCGG | 1.61 |
| CTGTCCGTGG | 1 |
| CTGTCCTGTC | 1.14 |
| CTGTCGGACG | 1.01 |
| CTGTCGGC | 1.02 |
| CTGTCGTCGG | 0.961 |
| CTGTCTATGT | 0.984 |
| CTGTCTTCAA | 1.03 |
| CTGTGAATCA | 0.972 |
| CTGTGACCTG | 0.989 |
| CTGTGATGCG | 0.942 |
| CTGTGCGCTC | 1.25 |
| CTGTGGATG | 0.996 |
| CTGTGTAGGG | 0.981 |
| CTGTGTATAC | 1.24 |
| CTGTGTTGTC | 1.02 |
| CTGTGTTTCC | 1.04 |
| CTGTGTTTTT | 1.02 |

| Sequence | switch fluorescence ratio |
| --- | --- |
| CTGTTAAAAG | 0.992 |
| CTGTTAAATT | 1.03 |
| CTGTTATTCG | 0.927 |
| CTGTTCTCA | 1.02 |
| CTGTTCTCTG | 0.996 |
| CTGTTGCCGT | 0.971 |
| CTGTTGCGTG | 1 |
| CTGTTGGGGA | 1.04 |
| CTGTTGTAGC | 0.98 |
| CTGTTTCCAA | 0.984 |
| CTGTTTGGT | 0.989 |
| CTGTTTTATT | 0.999 |
| CTTAAAAGAT | 0.961 |
| CTTAAACGCT | 0.999 |
| CTTAAAGATG | 0.995 |
| CTTAAAGGT | 0.982 |
| CTTAAATACT | 1.31 |
| CTTAAATCCA | 0.977 |
| CTTAACGCA | 1.18 |
| CTTAAGCCTA | 0.968 |
| CTTAAGTAAG | 0.976 |
| CTTAATAACG | 1.03 |
| CTTAATACAA | 0.994 |
| CTTAATCTG | 1.02 |
| CTTACACGGC | 1.07 |
| CTTACGCGGG | 1.02 |

| Sequence | switch fluorescence ratio |
| --- | --- |
| CTTAGAGGCC | 0.983 |
| CTTAGCAATT | 2.33 |
| CTTAGCTACG | 1.02 |
| CTTAGGTCAA | 0.976 |
| CTTAGTAAAC | 1.1 |
| CTTAGTGTA | 1 |
| CTTATATCGT | 0.966 |
| CTTATATTGA | 1 |
| CTTATGGATT | 0.989 |
| CTTATTACCT | 1.25 |
| CTTATTAGTA | 0.961 |
| CTTCAACGTG | 0.977 |
| CTTCAGAGGC | 1.06 |
| CTTCAGGAA | 1.04 |
| CTTCAGTAAA | 0.96 |
| CTTCATCAAA | 2.66 |
| CTTCATCGTT | 1.01 |
| CTTCATTCAT | 0.991 |
| CTTCCACGAC | 2.66 |
| CTTCCAGACT | 1.12 |
| CTTCCAGGAT | 1 |
| CTTCCCATGG | 1.36 |
| CTTCCCCAAC | 1.93 |
| CTTCCGGGTG | 1.49 |
| CTTCCGGTT | 1.14 |
| CTTCGACTTG | 1.02 |

| Sequence | switch fluorescence ratio |
| --- | --- |
| CTTCGTCAGT | 1.34 |
| CTTCGTTGAA | 1 |
| CTTCGTTTAA | 1.05 |
| CTTCTCACTT | 0.962 |
| CTTCTCCATG | 1.02 |
| CTTCTGCGTC | 1.05 |
| CTTCTGGTTT | 0.953 |
| CTTCTTGCAC | 1.18 |
| CTTCTTTCAT | 1.01 |
| CTTCTTTTTT | 0.955 |
| CTTGAGAACG | 1.03 |
| CTTGATAGTT | 1.02 |
| CTTGCCAGAT | 1.13 |
| CTTGCCAGTT | 1 |
| CTTGCCCTCT | 0.991 |
| CTTGCGACAT | 1.08 |
| CTTGCGATAA | 2.9 |
| CTTGCGGGCA | 0.982 |
| CTTGCGTGCT | 0.986 |
| CTTGCTATC | 1.24 |
| CTTGGAAAGT | 0.986 |
| CTTGGACTAT | 1 |
| CTTGGAGCTA | 1.11 |
| CTTGGCACAG | 0.972 |
| CTTGGCATAT | 1.27 |
| CTTGGCCATG | 1.01 |

| Sequence | switch fluorescence ratio |
| --- | --- |
| CTTGGCCGGT | 0.975 |
| CTTGGCCGTA | 1.02 |
| CTTGGGACTA | 1.02 |
| CTTGGTA | 0.975 |
| CTTGGTACAA | 1 |
| CTTGGTACAC | 1.02 |
| CTTGGTAGCT | 1.03 |
| CTTGGTCAGA | 1.01 |
| CTTGGTGATT | 0.937 |
| CTTGGTGCGC | 1.06 |
| CTTGTAAGTT | 0.988 |
| CTTGTATGTG | 1.01 |
| CTTGTCCGGC | 1.02 |
| CTTGTCGGGT | 0.983 |
| CTTGTTAATA | 1 |
| CTTGTTTGAG | 0.985 |
| CTTGTTTTGG | 0.986 |
| CTTTAACAGG | 1.03 |
| CTTTACTCTC | 1 |
| CTTTAGAATA | 1.02 |
| CTTTAGTCGG | 0.991 |
| CTTTATCGGG | 0.956 |
| CTTTATGGAG | 1.02 |
| CTTTATTGTG | 0.945 |
| CTTTCAACG | 1.03 |
| CTTTCATATA | 0.996 |

| Sequence | switch fluorescence ratio |
| --- | --- |
| CTTTCGGTTC | 1.01 |
| CTTTCGTTAG | 0.978 |
| CTTTGATGAG | 0.975 |
| CTTTGCAACT | 1.46 |
| CTTTGCTAAA | 1 |
| CTTTGCTAG | 0.985 |
| CTTTGGATA | 1.01 |
| CTTTGGGATT | 1.02 |
| CTTTTAAATT | 0.994 |
| CTTTTAACTT | 1.06 |
| CTTTTAGACT | 0.911 |
| CTTTTAGCCG | 0.982 |
| CTTTTATAGG | 1.01 |
| CTTTTATCCG | 1.04 |
| CTTTTCCTT | 1.15 |
| CTTTTCTTGT | 1.04 |
| CTTTTCTTTA | 1.02 |
| CTTTTGAAAG | 0.955 |
| CTTTTGGG | 0.974 |
| CTTTTTCGAT | 1.01 |
| CTTTTTGCTA | 0.994 |
| GAAAAAATAA | 0.99 |
| GAAAAACTTC | 1.07 |
| GAAAAATAGT | 0.975 |
| GAAAACAAGG | 1.07 |
| GAAAACCGTA | 1.02 |

| Sequence | switch fluorescence ratio |
| --- | --- |
| GAAAACGAGC | 0.979 |
| GAAAAGAGCG | 1.03 |
| GAAAAGCAGA | 1.01 |
| GAAAAGTTCA | 1.01 |
| GAAAATCAAA | 0.935 |
| GAAAATCTCT | 1.06 |
| GAAAATGCGC | 0.979 |
| GAAAATGTCA | 1.04 |
| GAAACACATA | 0.998 |
| GAAACAGAGA | 1.01 |
| GAAACAGCCA | 1.1 |
| GAAACAGGGT | 0.972 |
| GAAACGCCAC | 1.55 |
| GAAACGGGAA | 1.02 |
| GAAACGTCGT | 0.978 |
| GAAACTCATG | 0.995 |
| GAAACTTGCT | 1.05 |
| GAAAGAAAGT | 1.01 |
| GAAAGCCACA | 1.03 |
